# According to PubChem BioAssay AID686978 (National Center for Advancing Translational Sciences (NCATS), 2013):
# “And” between values parts separate entries of the source, which are not always exact repeats. Equal values may be shown once. The campaign covered roughly 420,000 compounds. About 64,000 (15%) were called active. Inconclusive means that the source gave no clear call. Such entries were picked first, then a sample of the others. Calls come from the whole dose curve; as a rule, active = well fitted inhibition curve with a large enough effect; inconclusive = small, poorly fitted or top-dose-only effect; inactive = flat fitted curve, though single readings scatter. A potency beside an inconclusive call is a rough fit, not a confirmed value.
# Experiment: qHTS for Inhibitors of human tyrosyl-DNA phosphodiesterase 1 (TDP1): qHTS in cells in absence of CPT; note: nearly all actives have a fitted effect of over 55% in size
# Settings: DT40 Tdp1-/- hTDP1 cells, no CPT, ATP luminescence, 48 h; activity change, negative = growth inhibition: at 46.2 µM (top of the series) unless noted
# Method in brief: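 Growth of hTDP1-complemented DT40 Tdp1-knockout cells is measured by ATP luminescence after at least 48 hr compound exposure at 37 °C, with DMSO substituting for the 20 nM CPT used in the parallel screen.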
# % is set by controls: 0 for no effect and ±100 for the full control effect; potency is the fitted concentration of half-maximal effect; tags give direction and shape of the fitted curve.
SMILES,Potency,"activity change, negative = growth inhibition"
CC(C)NC(=S)N=Nc1c(O)[nH]c2ccc(C(C)C)cc12,active: 5.17 µM,–
CCc1nc(SCC(=O)c2ccc3c(c2)OCCO3)c2ccccc2n1,"inconclusive: 16.4 µM [inhibitor, partial curve]",–
O=C(c1ccc2c(c1)N(Cc1ccccc1)CCS2)N1CCOCC1,"inconclusive: 10.3 µM [inhibitor, partial curve]",–
COc1ccc(CCNc2cc(C)nc3c(-c4ccccc4)cnn23)cc1OC,active: 29.1 µM,–
N#Cc1ccccc1NC(=O)CSC1=Nc2ccccc2C2CC=NN12 (centres undefined),active: 23.1 µM,–
COc1ccc2c(CC(=O)NCC3CCC(C(=O)O)CC3)cc(=O)oc2c1 (centres undefined),–,inactive: -4.72%
Cc1ccc(Nc2cc(C)nc3c(C)cccc23)cc1,"inconclusive: 20.6 µM [inhibitor, single point]",–
NC(Cc1ccc(OC(F)F)cc1)C(=O)O (centres undefined),–,inactive: 18.3%
CCOc1cc(C2C(C(=O)OC)=C(C)NC3=C2C(=O)c2ccccc23)cc(Br)c1OCC (centres undefined),active: 5.17 µM,–
CC(C)COC(=O)c1ccc(NC(=O)C2C3CCC(C3)C2C(=O)O)cc1 (centres undefined),"inconclusive: 16.4 µM [inhibitor, single point]",–
Cc1cc(C)c(NC(=O)Cc2ccc(-n3c(C)nc4cccnc43)cc2)c(C)c1,active: 20.6 µM,–
COc1ccc(/C=C/C(=O)Nc2cccc(S(=O)(=O)N3CCCC3)c2)cc1OC,active: 20.6 µM,–
Cc1ccc2[nH]c(C)c(CCN(Cc3cccnc3)C(=S)NC(C)(C)C)c2c1,"inconclusive: 23.1 µM [inhibitor, single point]",–
O=C(NC1CCCCCCC1)C1CCN(S(=O)(=O)N2CCCC2)CC1,"inconclusive: 29.1 µM [inhibitor, single point]",–
COc1cc(OC)c2c(-c3ccccc3)cc(=O)oc2c1C(CCN1CCOCC1)c1ccc2c(c1)OCO2 (centres undefined),"inconclusive: 20.6 µM [inhibitor, single point]",–
CC1=C(C(=O)OC2CCCCCC2)C(c2ccc(Cl)cc2)CC(=O)N1 (centres undefined),"inconclusive: 29.1 µM [inhibitor, single point]",–
CCC1Sc2ccc(S(=O)(=O)CCC(=O)NCc3cccs3)cc2NC1=O (centres undefined),active: 14.6 µM,–
COc1ccccc1C(=O)NCC(=O)N(C)Cc1nc2ccccc2c(=O)[nH]1,–,inactive: -1.47%
N#CCSc1nnc(N)s1,–,inactive: -1.03%
Cc1nc2c(nnn2Cc2ccccc2)c(=O)[nH]1,"inconclusive: 29.1 µM [inhibitor, single point]",–
O=C(c1cnn2c(C(F)(F)F)cc(-c3cccs3)nc12)N1CCN(Cc2ccccc2)CC1,active: 14.6 µM,–
O=C(NCCc1ccccc1)C1CCN(c2ncccn2)CC1,–,inactive: -1.31%
COC(=O)[C@]1(Sc2ccc(C)cc2)CC(=O)N[C@@H]1c1ccco1,"inconclusive: 29.1 µM [inhibitor, single point]",–
O=C(NCC1CCCO1)c1cc2ccccc2o1 (centres undefined),–,inactive: 13%
OCCN1CCN(CCCN2c3ccccc3CCc3ccccc32)CC1,"inconclusive: 29.1 µM [inhibitor, single point]",–

SMILES,Potency,"activity change, negative = growth inhibition"
O=C(Cc1c(F)cccc1Cl)Nc1nc2ccccc2s1,"inconclusive: 29.1 µM [inhibitor, single point]",–
Cc1cc(C)cc(C(O)c2ncc(-c3ccc(F)cc3)[nH]2)c1 (centres undefined),"inconclusive: 25.9 µM [inhibitor, single point]",–
CCCCOC(=O)c1ccc(N/C(=N\S(=O)(=O)c2ccccc2)c2ccccc2)cc1,"inconclusive: 29.1 µM [inhibitor, single point]",–
COc1ccccc1NC(=S)NNC(=O)c1ccncc1,"inconclusive: 4.61 µM [inhibitor, single point]",–
CC1CCN(S(=O)(=O)c2cccc(-c3nnc(-c4cccnc4)o3)c2)CC1,–,inactive: -97.2%
CCCCn1c(=O)[nH]c(=O)c2c1nc(-c1ccc(C#N)cc1)n2C1CCCC1,"inconclusive: 25.9 µM [inhibitor, single point]",–
CC(C)N1CCC1(C)C(=O)Nc1ccc(-n2cccc2)cc1 (centres undefined),"inconclusive: 23.1 µM [inhibitor, single point]",–
COc1ccc(Cn2c(CCC(=O)Nc3ccccc3OC)nc3cccnc32)cc1,"inactive and inconclusive: 18.4 µM [inhibitor, single point]",–
CN1CCN(S(=O)(=O)c2ccc(Sc3nnc(-c4cccs4)n3-c3ccccc3)nc2)CC1,"inconclusive: 18.4 µM [inhibitor, partial curve]",–
CCOC(=O)C1=CN(Cc2cccc(-c3cccnc3)c2)S(=O)(=O)N(CC)C1C (centres undefined),"inconclusive: 25.9 µM [inhibitor, single point]",–
Cc1ccc2nc(-c3ccco3)c(Nc3ccc4c(c3)OCCO4)n2c1,"inconclusive: 18.4 µM [inhibitor, single point]",–
COc1ccccc1CN1[C@@H](CC(=O)O)c2ccccc2S1(=O)=O,inactive,–
O=C(Nc1nncs1)c1cc(S(=O)(=O)N2CCOCC2)ccc1Cl,–,inactive: 0.371%
CCOC1=C2CN(S(=O)(=O)c3ccc(C)cc3)[C@H](c3ccccc3)C[C@@H]2N(S(=O)(=O)c2ccc(C)cc2)[C@H](c2cccs2)C1,–,inactive: -8.63%
N=c1oc2ccccc2cc1C(=O)Nc1ccccc1,–,inactive: -28.9%
COc1ccccc1NC(=O)CSc1nc2sc(C)c(C)c2c(=O)n1Cc1ccco1,"inconclusive: 7.31 µM [inhibitor, partial curve]",–
CN(C)c1ccc(CNn2cnnc2SCc2ccc(F)cc2)cc1,"inconclusive: 20.6 µM [inhibitor, single point]",–
O=C(CN1CCN(C2CCS(=O)(=O)C2)CC1)N1N=C(c2ccc(Cl)cc2)CC1c1ccco1 (centres undefined),"inconclusive: 18.4 µM [inhibitor, single point]",–
COc1ccc(C2CC(c3ccccc3Cl)Nc3ncnn32)cc1OC (centres undefined),"inconclusive: 13 µM [inhibitor, single point]",–
Nc1nnc2cc(Br)ccc2n1,"inconclusive: 20.6 µM [inhibitor, partial curve]",–
Cc1ccc2nc(NC(=O)C3CC3C)sc2c1 (centres undefined),"inconclusive: 25.9 µM [inhibitor, single point]",–
Cc1ccc(CN2CC(C(=O)N3CCN(c4ccccc4Cl)CC3)CC2=O)cc1 (centres undefined),"inconclusive: 29.1 µM [inhibitor, single point]",–
O=C(CCS(=O)(=O)c1ccccc1)Nc1ccc(S(=O)(=O)Nc2nccs2)cc1,–,inactive: -12.2%
CCOC(=O)C1=C(CC)Nc2ccccc2N=C1NC(=O)c1cccc(S(=O)(=O)N2CCCC2)c1,–,inconclusive: -31.3% [inhibitor]
Cc1cc(C)c(S(=O)(=O)c2cccc(C)c2C)c(=O)[nH]1,–,inactive: -6%

SMILES,Potency,"activity change, negative = growth inhibition"
OC[C@@H]1CN(Cc2ccccc2)C[C@H](n2cnc3c(N4CCCC4)ncnc32)O1,–,inactive: -25.5%
N#Cc1ccc(OCC(=O)N2CCN(c3ccc(C(F)(F)F)cn3)CC2)cc1,–,inactive: -9.15%
COc1ccccc1C(=O)NC1CC2CCCC(C1)N2Cc1ccccc1 (centres undefined),"inconclusive: 25.9 µM [inhibitor, single point]",–
CCCCC(=O)NC(c1ccc(N(C)C)cc1)c1ccc2cccnc2c1O (centres undefined),active: 0.731 µM,–
O=C(CN1C(=O)NC(c2ccccc2)(c2ccccc2)C1=O)N1CCN(c2ccc(F)cc2)CC1,"inconclusive: 29.1 µM [inhibitor, single point]",–
COc1ccc(NC2c3ccccc3C(=O)N2c2cccnc2)cc1 (centres undefined),–,inactive: 3.35%
O=C(Nc1ccc(-c2nnc3n2CCCCC3)cc1)c1cnccn1,–,inactive: -3.98%
COc1ccc(CNC(=O)c2ccc(-c3nc(CS(=O)c4ccc(C)cc4)c(C)o3)cc2)cc1 (centres undefined),"inconclusive: 10.3 µM [inhibitor, partial curve, poor fit]",–
Cc1ccc(CN2CCN(Cc3ccc4ncccc4c3)CC2CCO)cc1 (centres undefined),"inconclusive: 4.61 µM [inhibitor, full curve, poor fit]",–
COc1cccc2[nH]c(C(=O)NCc3ccc4c(c3)CCN4C(=O)c3ccc(F)cc3)cc12,"inconclusive: 29.1 µM [inhibitor, single point]",–
C/C=C/c1ccc(OCCOc2cccc3cccnc23)c(OC)c1,"inconclusive: 29.1 µM [inhibitor, single point]",–
CCC(C)(C)n1nnnc1C(c1cccs1)N1CCN(c2nc3ccccc3s2)CC1 (centres undefined),active: 15.8 µM,–
O=C1CC2(CCCC2)CC(=O)N1CCCCN1CCN(c2ncccn2)CC1,inactive,–
CC(=O)Nc1ccc(C(=O)OCCc2ccccc2)cc1,–,inactive: -14.8%
CC(NC(=O)c1cccnc1)C(c1ccccc1)N1CCN(C)CC1 (centres undefined),–,inactive: 6.72%
O=C(CSc1cn(CCNC(=O)c2c(F)cccc2F)c2ccccc12)Nc1ccccc1F,active: 20.6 µM,–
CCCCN(C(=O)COC(=O)CSc1ccc([N+](=O)[O-])cc1)c1c(N)n(CCC)c(=O)[nH]c1=O,–,inactive: -4.79%
CC(C)(C)NC(=S)NCc1ccc2c(c1)OCO2,–,inactive: -11.5%
c1ccc2cc(OCCCn3ccnc3)ccc2c1,"inconclusive: 25.9 µM [inhibitor, single point]",–
O=C(CN1CCCc2ccccc21)N1CCc2ccccc21,"inconclusive: 23.1 µM [inhibitor, single point]",–
Cc1cccc(N2CCN(C(=O)CN3C(=O)NC(C)(C4CC4)C3=O)CC2)c1C (centres undefined),"inconclusive: 11.6 µM [inhibitor, partial curve]",–
CC(=O)c1ccc(N2CCC(C)CC2)c(F)c1,–,inactive: -2.11%
COC(=O)c1ccc(NC(=O)CSc2nnc(C)n2-c2ccccc2)cc1,–,inactive: 7.34%
Fc1ccc(C2CC(c3ccco3)=Nc3ccccc3S2)cc1 (centres undefined),"inconclusive: 29.1 µM [inhibitor, single point]",–
